Data: the supplement of paper PMC12217912
Some of the results follow. The full chains were built here from the parent and the listed change. Values near 0.05 are background.

B1: TEV protease; numbered along this chain (parent)
chain: MGESLFKGPRDYNPISSSICHLTNESDGHTTSLYGIGFGPFIITNKHLFRRNNGTLVVQSLHGVFKVKDTTTLQQHLVDGRDMIIIRMPKDFPPFPQKLKFREPQREERICLVTTNFQTKSMSSMVSDTSCTFPSGDGIFWKHWIQTKDGQCGSPLVSTRDGFIVGIHSASNFTNTNNYFTSVPKNFMELLTNQEAQQWVSGWRLNADSVLWGGHKVFMVKPEEPFQPVKEATQL

Variants of: B1
Test: raw area under fraction-flipped curve 0-4 h after induction (AUC4h, not background-subtracted), DNA-recorder readout of cleavage of the substrate (dimensionless); higher = more cleavage of the substrate by the protease variant
Conditions: temperature: 34 °C; time window: 0-4 h after rhamnose induction
Experimental: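 In vivo DNA recorder in E. coli TOP10(DE3) ΔrhaA at 34 °C. Each TEVp single-site mutant (parent TEVp 0) is paired with a single-site variant of the 7-mer TEVs (canonical ENLYFQ|S). The substrate sits between flexible linkers in a Bxb1-sfGFP-TEVs-SsrA fusion, so cleavage stabilises Bxb1 and speeds flipping of a recombination array, read by NGS. The value is the raw area under the fraction-flipped curve over 0-4 h after rhamnose induction (AUC4h), with ≥20 reads per time point. It is not background-subtracted; inactive controls average about 0.047.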
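Also: Bxb1 expression induced with 0.2% (w/v) L-rhamnose at OD600 near 0.5, cultures sampled hourly, flipped fraction per protease–substrate barcode pair counted by paired-end Illumina sequencing.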

| Variant | area with substrate CNLYFQS | area with substrate DNLYFQS | area with substrate KNLYFQS | area with substrate LNLYFQS | area with substrate MNLYFQS | area with substrate PNLYFQS | area with substrate QNLYFQS | area with substrate RNLYFQS | area with substrate SNLYFQS | area with substrate TNLYFQS | area with substrate WNLYFQS | area with substrate GNLYFQS | area with substrate HNLYFQS | area with substrate INLYFQS | area with substrate FNLYFQS | area with substrate NNLYFQS | area with substrate VNLYFQS | area with substrate YNLYFQS |
| --- | --- | --- | --- | --- | --- | --- | --- | --- | --- | --- | --- | --- | --- | --- | --- | --- | --- | --- |
| P184Q | 0.0559 | 0.0646 | 0.0561 | 0.0653 | 0.0577 | 0.052 | 0.0573 | 0.0477 | 0.0649 | 0.0579 | 0.0601 | – | – | – | – | – | – | – |
| S127T | 0.0672 | 0.0721 | 0.0806 | – | 0.0673 | 0.0689 | 0.0856 | – | – | 0.0633 | 0.0633 | 0.0416 | 0.0629 | 0.0752 | – | – | – | – |
| G80V | 0.0651 | – | 0.0594 | 0.0684 | – | 0.0628 | – | – | 0.0633 | 0.0883 | 0.0598 | – | 0.0694 | – | 0.0499 | 0.0578 | 0.0659 | 0.0618 |
| T192K | 0.0558 | 0.0795 | – | 0.0613 | 0.067 | – | – | – | 0.0517 | 0.0687 | 0.0554 | 0.0632 | 0.0639 | – | 0.0402 | – | – | – |
| P40M | 0.0616 | – | – | 0.0622 | – | – | 0.0621 | 0.0389 | 0.0686 | – | 0.0593 | – | 0.0613 | – | 0.09 | – | – | – |
| N13Q | 0.0891 | 0.0865 | 0.0707 | 0.0613 | 0.064 | 0.0624 | – | – | 0.0673 | 0.066 | 0.067 | – | 0.0633 | 0.0775 | – | 0.0654 | – | 0.0732 |
| D208F | 0.0662 | – | – | 0.0567 | – | 0.0559 | – | – | 0.0512 | 0.0629 | 0.0593 | – | 0.0711 | 0.0542 | – | – | – | – |
| N52G | 0.0691 | 0.0574 | 0.062 | 0.0542 | – | 0.0675 | 0.0739 | 0.048 | 0.0601 | 0.061 | 0.053 | 0.0512 | 0.0505 | 0.0551 | 0.0589 | 0.0603 | 0.057 | 0.053 |
| D208R | 0.0603 | – | 0.0632 | 0.0479 | 0.0551 | 0.0557 | 0.0647 | – | – | 0.054 | 0.0544 | – | 0.0475 | – | – | 0.0594 | – | 0.0518 |
| P96H | 0.0694 | 0.0519 | 0.0717 | 0.0627 | 0.069 | 0.0818 | 0.0702 | – | – | 0.0783 | 0.0606 | – | 0.0834 | – | 0.0465 | – | 0.0651 | 0.0635 |
| I15N | 0.0542 | 0.0616 | 0.0528 | – | 0.0251 | 0.0549 | 0.041 | – | 0.0586 | 0.0627 | 0.0675 | 0.057 | 0.0562 | 0.0586 | – | – | – | 0.0484 |
| H47G | 0.0486 | 0.0563 | 0.0566 | 0.0666 | 0.0554 | 0.0589 | – | – | 0.062 | 0.0542 | 0.0535 | – | 0.0685 | 0.0648 | 0.0578 | 0.0564 | – | 0.0572 |
| L56A | – | 0.0612 | 0.0632 | – | 0.0605 | – | – | – | – | – | 0.0475 | 0.0776 | 0.0603 | 0.0531 | 0.0621 | – | 0.0584 | – |
| L112A | – | 0.0652 | 0.0692 | 0.0572 | 0.0607 | 0.0507 | – | 0.0651 | 0.0473 | 0.0606 | 0.0631 | 0.0627 | 0.0581 | 0.0662 | – | – | – | 0.0547 |
| M88R | – | 0.0531 | – | 0.0488 | 0.05 | – | – | – | – | 0.043 | 0.0462 | 0.0454 | – | 0.0409 | 0.0498 | – | – | – |
